According to ChEMBL document CHEMBL1201862, “PubChem BioAssay data set” (2004):
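A five-concentration, 48-hour dose response in 96-well plates underlies each endpoint, interpolated linearly between surrounding concentrations. GI50 = concentration required for 50% inhibition of growth.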 Active and inactive are the calls of the source. Cut-off read from the data, not from the text of the source: active = GI50 up to about 1.1 µM and inactive = higher.

The molecules below were run on NCI-H322M (assay: NCI tumour cell line growth inhibition, 48 h).

| SMILES | GI50 |
| --- | --- |
| O=C(O)c1cccc(S(=O)(=O)NCCO)c1 | inactive: > 100 µM |
| Cc1ccc(C)c(C2NC(=O)c3ccccc3N2)c1 (stereo not drawn) | inactive: 5.41 µM |
| Cc1c2c(nc3ccccc13)C(=O)c1cccnc1C2=O | inactive: 3.37 µM |
| CN(C)c1ccc(/C=C2\C[C@H]3[C@@H]4CCc5cc(O)ccc5[C@H]4CC[C@]3(C)C2=O)cc1 | inactive: 50.6 µM |
| Oc1cc(CF)nc(S)n1 | inactive: > 100 µM |
| Clc1c2nc3ccccc3c-2[nH]c2ccccc12 | inactive: 17.1 µM |
| CC(=O)Oc1ccc(-c2cc3ccccc3oc2=O)cc1 | inactive: 83.9 µM |
| SC1=NC2(CCCCCC2)NN1c1ccccc1 | inactive: 15.2 µM |
| COc1ccc(-n2cnn3c(=O)c4cn[nH]c4nc23)cc1 | inactive: > 10 µM |
| CC1(C)OC2C(CO)OC(N/C(=N/C#N)Oc3ccccc3)C2O1 (stereo not drawn) | inactive: > 100 µM |
| CN(C)CCNC(=O)c1cccc2nc3c4ccccc4c4ccccc4c3nc12 | inactive: 1.65 µM |
| CCOC(=O)CC[C@H](NC(=O)N[C@H](C)c1ccccc1)C(=O)OCC | inactive: 83.4 µM |
| C/C(=N\NC(=[Se])N(C)C)c1ccccn1 | active: 0.0196 µM |
| COC(=O)c1cc(-c2ccc(-c3ccc(O)cc3)cc2)cc(-c2ccc(-c3ccc(O)cc3)cc2)c1 | inactive: 13.1 µM |
| Cc1ccc(C(=O)C(Cl)C(Cl)c2ccc(C)cc2)cc1 (stereo not drawn) | inactive: 13.6 µM |
| O=S(=O)(c1cccc(N=C=S)c1)c1cccc(N=C=S)c1 | inactive: 42.8 µM |
| CCOC(=O)/C(C#N)=C/c1ccc(SCc2ccco2)c([N+](=O)[O-])c1 | inactive: > 100 µM |
| ClC(Cl)=C(Cl)C1(Cl)CC1COCc1ccccc1 (stereo not drawn) | inactive: 36.5 µM |
| CCC(C)(O)c1cn(-c2cccc(S(=O)(=O)O)c2)nn1 (stereo not drawn) | inactive: > 100 µM |
| CC(=O)O[C@H]1CC[C@@]2(C)C(=CC[C@H]3[C@@H]4CC[C@H](c5cc(C(F)(F)F)n(C(C)=O)n5)[C@@]4(C)CC[C@@H]32)C1 | inactive: 11.2 µM |
| NN/C(=N\S(=O)(=O)c1cc2ccccc2o1)Nc1ccc(Cl)cc1 | inactive: > 100 µM |
| O=[N+]([O-])C(=C(c1ccccc1)c1ccccc1)[N+](=O)[O-] | inactive: 17.5 µM |
| c1ccc2c(c1)ncn2CCn1ccnc1 | inactive: > 100 µM |
| Cc1ccc2c(=O)c3ccccc3sc2c1 | inactive: > 100 µM |
| Cc1ccc(S(=O)(=O)OCOS(=O)(=O)c2ccc(C)cc2)cc1 | inactive: > 100 µM |

| SMILES | GI50 |
| --- | --- |
| COC(=O)/C(=N\Nc1nnc(C)n1N)C(C#N)c1ccccc1 (stereo not drawn) | inactive: > 100 µM |
| Cc1ccc2c(C3Cc4ccccc4N3C(=O)/C=C\C(=O)O)c(C)[nH]c2c1 (stereo not drawn) | inactive: > 100 µM |
| N#CC(C#N)=C1C(=O)NC(N)=C1C#N | inactive: > 100 µM |
| COc1ccc2c(c1)C1(C=N2)CCN(C(C)=O)CC1 | inactive: > 100 µM |
| COc1cc(O)c(/C=N/N=C(\N)NO)c(OC)c1 | inactive: 4.94 µM |
| Clc1nc(Nc2nc3ccccc3[nH]2)nc(Cl)c1Cc1ccccc1 | inactive: > 100 µM |
| CC(=O)NC(CS/N=N/c1[nH]cnc1C(N)=O)C(=O)O (stereo not drawn) | inactive: > 42.6 µM |
| CN1N=C(c2ccncc2)OC1c1cccc(F)c1 (stereo not drawn) | inactive: > 100 µM |
| CCOC(=O)NC(=O)c1cn(CC(=O)NCC(=O)NCC(=O)N2CCN(CCn3c(C)nc(C(N)=O)c3N)CC2)c(=O)[nH]c1=O | inactive: > 100 µM |
| CC1=CC(=O)/C(=C/NC(=S)Nc2ccccc2)C(=O)O1 | inactive: > 100 µM |
| CO[P@@]1(=O)O[C@@H](c2ccccc2)[C@H](O)[C@@]1(O)c1ccccc1 | inactive: > 100 µM |
| C[N+](C)(C)CC1CCc2ccccc2C1=O (stereo not drawn) | inactive: 18.8 µM |
| CCOC(=O)c1c(N2CCN(C)CC2)[nH]c(=O)c(C(c2c(Cl)cccc2Cl)c2c(O)c(C(=O)OCC)c(N3CCN(C)CC3)[nH]c2=O)c1O | inactive: 25.9 µM |
| COC(=O)C(C(=O)C(=O)Nc1ccccc1C(C)=O)c1nc2ccc(Cl)cc2nc1O (stereo not drawn) | inactive: > 100 µM |
| CCOC(=O)C1=CN=C2C(=O)N(c3ccccc3)N(C)C2(C)C1=N (stereo not drawn) | inactive: > 100 µM |
| COc1cc2c(cc1OC)C(c1ccccc1CCCCl)=NCC2 | inactive: > 100 µM |
| O=C(/C=C1/Nc2ccc([N+](=O)[O-])cc2N/C1=C/C(=O)c1ccc(Cl)cc1)c1ccccc1 | inactive: > 100 µM |
| CCOC(=O)C1=C(NC)OC/C1=N\NC(=O)c1ccccc1O | inactive: 27.9 µM |
| N#CC1=C(S)N(C2OC(CO)C(O)C(O)C2O)C(c2ccccc2)=CC1c1cccs1 (stereo not drawn) | inactive: 17.1 µM |
| Cc1nc2sccn2c1C(=O)NN | inactive: > 100 µM |
| COc1ccc2[nH]cc(C=C3C(=O)NC(=S)NC3=O)c2c1 | inactive: > 100 µM |
| O=C1c2ccccc2C(=O)c2c1ccc1c3ccccc3n(Cc3ccccc3)c21 | inactive: > 100 µM |
| Clc1ccc(-c2nn3c(COc4ccc(OCc5nnc6sc(-c7ccc(Cl)cc7)nn56)c(Cl)c4)nnc3s2)cc1 | inactive: 53 µM |
| Cc1c2cnccc2c(C)c2c1c1ccccc1n2CCCCCCCl | inactive: > 50 µM |
| COC(=O)C1Cc2ccc(O)c(O)c2CN1 (stereo not drawn) | inactive: 29 µM |

| SMILES | GI50 |
| --- | --- |
| CCOC(=O)c1ccc(N(CCOS(C)(=O)=O)CCOS(C)(=O)=O)cc1 | inactive: > 100 µM |
| CN(C)/C=N/S(=O)(=O)c1nn2c(C=O)c(-c3cc4ccccc4oc3=O)nc2s1 | inactive: 23.8 µM |
| COc1ccc(NC(=O)CCc2cc(C(C)(C)C)[nH]n2)cc1 | inactive: > 100 µM |
| CCOC(=O)c1ccn2c(c1)c(C#N)c1nc3ccccc3nc12 | inactive: > 100 µM |
| O=C(CC(=O)C(F)(F)F)c1csc2ccccc12 | inactive: 40.2 µM |
| O=[N+]([O-])c1ccc2nc3ccccc3cc2c1 | inactive: 3.52 µM |
| CC1(C)CCc2c(cc3c(c2O)CCC(C)(C)O3)O1 | inactive: > 100 µM |
| CC1(C)C2CCC1C(=O)C(C=O)C2 (stereo not drawn) | inactive: > 100 µM |
| OC1COC2CC(Nc3ccccn3)OC12 (stereo not drawn) | inactive: > 100 µM |
| Cc1oc2c(c1C)S(=O)(=O)C(C#N)=C(N(C)C)N2 | inactive: > 100 µM |
| O=C(/C=C1\C[C@H]2C=Nc3ccccc3C(=O)N2C1)NCCCCCNC(=O)/C=C1\C[C@H]2C=Nc3ccccc3C(=O)N2C1 | inactive: 15.7 µM |
| CC1(C)CC(=O)C(=CNC(=S)c2ccccc2)C(=O)C1 | inactive: > 100 µM |
| COc1cc(/C=C2\CCc3ccccc3C2=O)ccc1O | inactive: 17 µM |
| CC(C)C(=O)/C=C/S/C=C/C(=O)C(C)C | inactive: 33.1 µM |
| O=C1Nc2ccccc2/C1=N/Nc1nc(-c2cccc([N+](=O)[O-])c2)cs1 | inactive: 27.1 µM |
| Clc1ccc(C2=Nc3ccccc3SC(c3ccc(Cl)c(Cl)c3)C2)c(Cl)c1 (stereo not drawn) | inactive: 18.6 µM |
| C(/C=N/c1ccccc1)=C(/Nc1ccccc1)c1ccc2ccccc2c1 | inactive: 4.02 µM |
| CCOP(=O)(OCC)C(C)(C)N(C)/C(F)=N/C(F)(F)F | inactive: > 100 µM |
| CCc1ccccc1NC(=O)/C(CC(=O)c1c(C)[n+]([O-])c2ccccc2[n+]1[O-])=N\NS(=O)(=O)c1ccc(C)cc1 | inactive: 96.4 µM |
| Nc1ccc(Nc2cc(=O)[nH]c(=O)[nH]2)cc1Cl | inactive: > 100 µM |
| CC(=O)OC(=O)O/C=C\CCl | inactive: > 100 µM |
| O=C(O)C1C2C=CC(O2)C1C(=O)NCc1cccnc1 (stereo not drawn) | inactive: > 100 µM |
| CSc1ncnc2c1ncn2CCC#N | inactive: > 100 µM |
| O=C(NC(CO)CO)c1ccc2cc(C(=O)N3CC(CCl)c4ccc([N+](=O)[O-])cc43)[nH]c2c1 (stereo not drawn) | inactive: > 100 µM |
| CCCCCCCCCCCCOCCOCCOCCOCCOCCOCC(=O)NC(Cc1ccccc1)C(=O)Oc1ccc([N+](=O)[O-])cc1 (stereo not drawn) | inactive: 46.5 µM |

| SMILES | GI50 |
| --- | --- |
| COc1cc(CO)c(CC(=O)NCCCc2ccccc2)cc1OC | inactive: > 100 µM |
| COc1ccc(N[S+]([O-])C2CCCCC2)cc1 (stereo not drawn) | inactive: > 100 µM |
| CC#CC(=O)Nc1ccccc1CC(c1c[nH]c2ccccc12)c1c[nH]c2ccccc12 | inactive: 21.8 µM |
| Cc1cccc(C(C)(C)C)c1NC(=O)CC1C(=O)Nc2ccccc2[S+]1[O-] (stereo not drawn) | inactive: 98.6 µM |
| O=c1[nH]c(=O)n(C/C=C/CBr)nc1Br | inactive: 16.4 µM |
| COc1cccc(-c2[nH]c3cc4c(cc3c(=O)c2C(=O)O)OCO4)c1 | inactive: 72.8 µM |
| CSc1c(C#N)c(=O)n(N)c2[nH]nc(C)c12 | inactive: > 100 µM |
| CCC1C2Cc3ccc(O)cc3C1(CC)CCN2C (stereo not drawn) | inactive: > 100 µM |
| O=C(O)C(=C\c1ccc2c(c1)OCO2)/C(=C/c1ccc2c(c1)OCO2)C(=O)O | inactive: > 100 µM |
| CSc1ncc2c(n1)-c1ccccc1OC2NC(C)(C)C (stereo not drawn) | inactive: 49 µM |
| NC1CCCCC1.O=P(O)(O)C1(P(=O)(O)O)CC1 | inactive: > 100 µM |
| C#C[C@@]1(O)CCCC2=CC(=O)C[C@]21C | inactive: > 100 µM |
| O=C(N/N=C(COc1ccccc1)\N=C\c1ccncc1)c1ccncc1 | inactive: > 100 µM |
| CN(C)c1nc2nonc2nc1Nc1ccccc1 | inactive: > 100 µM |
| CCOC(=O)C(N=C(c1ccccc1)c1ccccc1)N(C(=O)OC(C)(C)C)C(=O)OC(C)(C)C (stereo not drawn) | inactive: > 100 µM |
| CCCCCCc1cc2cc(-c3cn4ccsc4n3)c(=O)oc2cc1O | inactive: > 100 µM |
| O=S(=O)(O)c1cc(S(=O)(=O)O)c2c(Nc3ccnc4ccccc34)ccc(S(=O)(=O)O)c2c1 | inactive: > 100 µM |
| COc1cccc2c1C(=O)c1c(O)c3c(c(O)c1C2=O)C[C@@](O)(C(=O)CO)CC3OC1CC(N)C(OC2CCCCO2)C(C)O1 (stereo partly drawn) | inactive: 1.82 µM |
| CCN1CCCC(NCc2c3ccccc3c(CNC3CCCN(CC)C3)c3ccccc23)C1 (stereo not drawn) | inactive: 20.2 µM |
| SC1=Nc2ccccc2-c2nc(-c3cccc(Cl)c3)cc(-c3ccccc3)c2C1 | active: 0.662 µM |
| CCOc1cc2c(OCc3ccccc3)cc3c4cc(OC)c(OC)cc4c[n+](C)c3c2cc1OC | inactive: 3.53 µM |
| COC1=CC(=O)c2c(cc(COP(N)(=O)N(CCBr)CCBr)n2C)C1=O (stereo not drawn) | inactive: 1.75 µM |
| COc1ccc(OC)c(CC(C)N)c1 (stereo not drawn) | inactive: > 100 µM |
